In all, about 310,000 compounds went through this assay and about 2,200 (0.71%) showed an effect of 50% or more. Effects have a minus sign here. The list shows a part of the results.
The molecules below were run against human ether-à-go-go-related gene (hERG) potassium channel (human, UniProt Q12809) (assay: primary screen, population patch clamp on CHO cells stably expressing hERG).
Chain of human ether-à-go-go-related gene (hERG) potassium channel (Q12809 whole entry, looked up): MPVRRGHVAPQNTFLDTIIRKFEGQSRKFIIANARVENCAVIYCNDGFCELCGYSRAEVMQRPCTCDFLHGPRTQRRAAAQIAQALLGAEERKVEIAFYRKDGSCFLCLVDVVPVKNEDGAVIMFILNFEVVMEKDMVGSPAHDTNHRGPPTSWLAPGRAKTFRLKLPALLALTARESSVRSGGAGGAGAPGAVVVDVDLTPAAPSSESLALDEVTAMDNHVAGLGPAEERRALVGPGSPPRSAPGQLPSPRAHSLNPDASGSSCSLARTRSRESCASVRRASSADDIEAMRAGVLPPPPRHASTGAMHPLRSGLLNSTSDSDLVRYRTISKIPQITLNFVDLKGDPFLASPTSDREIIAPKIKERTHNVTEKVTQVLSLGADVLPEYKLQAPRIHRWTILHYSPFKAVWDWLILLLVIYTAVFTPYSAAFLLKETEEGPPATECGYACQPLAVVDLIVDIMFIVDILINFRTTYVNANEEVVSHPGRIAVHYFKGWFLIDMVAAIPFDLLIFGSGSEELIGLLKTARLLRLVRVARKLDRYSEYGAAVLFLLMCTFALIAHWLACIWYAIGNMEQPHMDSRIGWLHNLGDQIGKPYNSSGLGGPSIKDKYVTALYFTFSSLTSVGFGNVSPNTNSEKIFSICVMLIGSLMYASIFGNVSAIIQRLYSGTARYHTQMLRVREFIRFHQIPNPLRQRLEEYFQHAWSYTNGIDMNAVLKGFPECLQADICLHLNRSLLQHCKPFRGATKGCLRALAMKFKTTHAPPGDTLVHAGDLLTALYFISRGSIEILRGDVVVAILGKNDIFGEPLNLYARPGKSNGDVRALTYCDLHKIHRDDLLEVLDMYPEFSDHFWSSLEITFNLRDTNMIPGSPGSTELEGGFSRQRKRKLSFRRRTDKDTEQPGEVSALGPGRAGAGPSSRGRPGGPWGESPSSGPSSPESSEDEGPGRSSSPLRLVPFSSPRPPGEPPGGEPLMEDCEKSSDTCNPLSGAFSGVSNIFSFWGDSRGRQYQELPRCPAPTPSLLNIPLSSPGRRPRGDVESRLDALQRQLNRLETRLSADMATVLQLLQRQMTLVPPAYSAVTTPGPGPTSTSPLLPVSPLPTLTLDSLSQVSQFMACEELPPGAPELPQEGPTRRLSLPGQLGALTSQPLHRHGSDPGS
In the case of `Nc1ncn(C23CC4CC(CC(C4)C2)C3)n1`, the “hERG current change (%, negative = inhibition) at 1uM” value is reported as -1.63%. `Cc1nn(C(C)C(=O)NCC2CCCO2)c(C)c1[N+](=O)[O-]` (centres unmarked) was tested, and the “hERG current change (%, negative = inhibition) at 1uM” value was 4.46%. With `COc1ccc(NC(=O)C2=CC(c3ccco3)=NS(=O)(=O)N2C)cc1OC` the “hERG current change (%, negative = inhibition) at 1uM” value was 3.3%. With `CCN(C(=O)CCS(=O)(=O)c1cc2c(cc1Cl)NC(=O)CO2)c1ccccc1` the “hERG current change (%, negative = inhibition) at 1uM” value was -3.44%. For `COc1ccc(NC(=O)C2CCOC2=O)cc1` (centres unmarked), the “hERG current change (%, negative = inhibition) at 1uM” value was 6.06%. With `Nc1nc(Cl)cc(N2CCC(c3cc(-c4ccc(Cl)cc4Cl)n[nH]3)CC2)n1` the “hERG current change (%, negative = inhibition) at 1uM” value was 18.3%. For `O=C(COC(=O)CCc1ccc(S(=O)(=O)N2CCOCC2)cc1)Nc1cccc(Cl)c1`, the “hERG current change (%, negative = inhibition) at 1uM” value was 5.62%. In the case of `O=C(O)C(=O)O.OCCN1CCN(C(=S)Nc2cccc(C(F)(F)F)c2)CC1`, the “hERG current change (%, negative = inhibition) at 1uM” value is reported as 12.7%. In the case of `Cc1cc(C(=O)N/N=C/c2ccccc2)c(C)o1`, the “hERG current change (%, negative = inhibition) at 1uM” value is reported as 10.4%. For `CCCC/C(O)=C1\C(=O)CC(C)(C)CC1=Nc1ccc(N)cc1`, the “hERG current change (%, negative = inhibition) at 1uM” value was 9.76%. In the case of `CCCCC(CC)C(=O)N1CCN(C(=O)c2ccco2)CC1` (centres unmarked), the “hERG current change (%, negative = inhibition) at 1uM” value is reported as 7.71%. `Cc1cc(C(=O)COC(=O)c2ccc(F)cc2F)c(C)n1C1CC1` was tested, and the “hERG current change (%, negative = inhibition) at 1uM” value was 4.3%. `COC(=O)CSc1nc(N)c2c3c(sc2n1)C(c1ccccc1)SC(c1ccccc1)C3` (centres unmarked) was tested, and the “hERG current change (%, negative = inhibition) at 1uM” value was 26.5%. For `COc1cc(/C=N/NC(=O)CSc2cc(C)c(Br)cc2C)ccc1O`, the “hERG current change (%, negative = inhibition) at 1uM” value was 8.67%. For `CC1(C)CC(NC(=O)c2cccc(S(=O)(=O)N(Cc3ccccc3)c3ccccc3)c2)CC(C)(C)N1`, the “hERG current change (%, negative = inhibition) at 1uM” value was -3.29%. In the case of `NS(=O)(=O)c1ccc(NC(=O)COc2ncnc3c2cnn3-c2ccccc2)cc1`, the “hERG current change (%, negative = inhibition) at 1uM” value is reported as 8.97%. `CCO[C@H]1OC(C(=O)N2CCN(Cc3ccccc3)CC2)=C[C@@H](c2ccccc2)[C@@H]1CCCO` was tested, and the “hERG current change (%, negative = inhibition) at 1uM” value was 9.1%. In the case of `COn1c(SCc2ccc(C)cc2C)nc2ccccc2c1=O`, the “hERG current change (%, negative = inhibition) at 1uM” value is reported as 4.18%. In the case of `COCc1cc(C)nc(SCc2ccccc2Cl)c1C#N`, the “hERG current change (%, negative = inhibition) at 1uM” value is reported as 14.8%. With `O=C(O)c1cccc(Nc2nc3ccccc3nc2NS(=O)(=O)c2cccs2)c1` the “hERG current change (%, negative = inhibition) at 1uM” value was 12.2%. `COc1ccc(OCC(=O)N/N=C/C(C)=C/c2ccco2)c(Br)c1` was tested, and the “hERG current change (%, negative = inhibition) at 1uM” value was 12.2%. In the case of `C/C(=N\NC(=O)C1(C)NC(C)(C)Cc2ccccc21)c1ccccc1` (centres unmarked), the “hERG current change (%, negative = inhibition) at 1uM” value is reported as 14.7%. In the case of `O=C(CCCN1C(=O)/C(=C/c2ccccc2Cl)SC1=S)N1CCCC1`, the “hERG current change (%, negative = inhibition) at 1uM” value is reported as 10.8%. For `COc1ccc(C(=O)CSc2nc3[nH]ncc3c(=O)[nH]2)cc1`, the “hERG current change (%, negative = inhibition) at 1uM” value was -0.714%. In the case of `Cc1ccc(NC(=O)c2nc[nH]c2C(=O)N2CCc3ccccc3C2)cc1`, the “hERG current change (%, negative = inhibition) at 1uM” value is reported as 18.7%. `O=c1c2ccccc2nc(SCc2nnc(-c3ccccc3Br)o2)n1Cc1ccco1` was tested, and the “hERG current change (%, negative = inhibition) at 1uM” value was 10%. For `Cc1nc2nc(COc3ccccc3)nn2c(C)c1Cl`, the “hERG current change (%, negative = inhibition) at 1uM” value was 9.03%. For `COc1ccc(S(=O)(=O)Nc2ccccc2C(=O)N2CCCC2)cc1C`, the “hERG current change (%, negative = inhibition) at 1uM” value was 10.7%. With `CC(C)(C)NC(=S)Nc1ccc(Nc2ccccc2)cc1` the “hERG current change (%, negative = inhibition) at 1uM” value was 9.7%. In the case of `O=[N+]([O-])c1cc(-c2nc(-c3ccncc3)no2)cc([N+](=O)[O-])c1`, the “hERG current change (%, negative = inhibition) at 1uM” value is reported as -9.58%. `O=C(NCC1CCCO1)c1nc(Cn2ccc([N+](=O)[O-])n2)no1` (centres unmarked) was tested, and the “hERG current change (%, negative = inhibition) at 1uM” value was 7.64%. For `C=CCn1c(NC(=O)CC)c(C(=O)OCC)sc1=S`, the “hERG current change (%, negative = inhibition) at 1uM” value was 8.74%. With `C/C(=N\NC(=O)c1ccccc1C)c1cccnc1` the “hERG current change (%, negative = inhibition) at 1uM” value was 10.9%. `COc1ccc(C(C(=O)NC2CCCCC2)N(Cc2cccnc2)C(=O)c2snc(C(N)=O)c2N)cc1` (centres unmarked) was tested, and the “hERG current change (%, negative = inhibition) at 1uM” value was 5.42%. In the case of `CCOC(=O)C(C#N)(Cc1cc(OC)cc(OC)c1)Cc1cc(OC)cc(OC)c1`, the “hERG current change (%, negative = inhibition) at 1uM” value is reported as 4.24%. In the case of `COc1ccc(-c2nnn(CC(=O)N(Cc3ccco3)C(C(=O)NCC3CCCO3)c3ccco3)n2)cc1` (centres unmarked), the “hERG current change (%, negative = inhibition) at 1uM” value is reported as 6.19%. `CCOC(=O)c1ccc(NC(=O)c2nc[nH]c2C(=O)N2CCC(C)CC2)cc1` was tested, and the “hERG current change (%, negative = inhibition) at 1uM” value was 13.1%. For `CC(=O)c1cccc(CN2CCC(n3nccc3NC(=O)c3ccc4c(c3)OCO4)CC2)c1`, the “hERG current change (%, negative = inhibition) at 1uM” value was 6.25%. With `O=C1CCCC2=C1C(c1ccccn1)Nc1ccc(C(=O)c3ccccc3)cc1N2` (centres unmarked) the “hERG current change (%, negative = inhibition) at 1uM” value was 10.7%. With `CCOc1ccc(CCNC(=O)c2ccc(=O)[nH]c2)cc1OCC` the “hERG current change (%, negative = inhibition) at 1uM” value was 4.91%. With `CSc1ncc(CN2CCCCC2C(=O)Nc2ccc(Oc3ccccc3)nc2)cn1` (centres unmarked) the “hERG current change (%, negative = inhibition) at 1uM” value was 5%. With `CC(=O)Nc1ccc(S(=O)(=O)NCC2CCCO2)cc1` (centres unmarked) the “hERG current change (%, negative = inhibition) at 1uM” value was 16%. `Cc1nc(CCNS(=O)(=O)c2cccnc2)cs1` was tested, and the “hERG current change (%, negative = inhibition) at 1uM” value was 11.5%. `COc1ccccc1N(C)C(=O)c1cc(S(=O)(=O)N2CCCC2)cn1C` was tested, and the “hERG current change (%, negative = inhibition) at 1uM” value was 11.6%.
